Results reported in the supplement of paper PMC6531468.
Some of the results follow. These are enrichments in a pooled selection; single values are uncertain. Each score is taken over the longer molecules that contain the sequence shown.

Each sequence was assayed on IMP3 KH1-2 (assay: 6-mer SELEX enrichment z-score vs GST control; IMP3 is the RNA-binding protein IGF2BP3; higher = more enriched by binding). Conditions: construct: KH1-2 (164-376); SELEX round: R4.
Experimental: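 SELEX-seq with GST-tagged IMP3 KH1-2 (Pro164-Phe376) and an N40 RNA pool, round 4 (stringent 300/600 mM KCl washes). 6-mer z-score of sequence-tag enrichment normalised to the corresponding GST SELEX round; RNA k-mers written as DNA (T for U).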

IMP3 KH1-2, sequence (chain, as listed by the source): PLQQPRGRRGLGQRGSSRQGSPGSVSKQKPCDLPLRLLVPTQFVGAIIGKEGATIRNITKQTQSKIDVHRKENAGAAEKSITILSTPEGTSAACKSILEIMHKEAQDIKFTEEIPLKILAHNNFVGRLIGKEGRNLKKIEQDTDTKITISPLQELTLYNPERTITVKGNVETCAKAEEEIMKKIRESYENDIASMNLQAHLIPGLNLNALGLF

| Sequence | 6-mer SELEX enrichment z-score |
| --- | --- |
| ATTCTT | 0.687 |
| AAGTGG | 0.268 |
| ATTAAA | 1.25 |
| CTCCTG | -0.59 |
| TCGAAC | -1.86 |
| TGAAGC | -0.63 |
| CAGCGG | 0.226 |
| GTCCCT | -0.304 |
| TGCCTG | -0.616 |
| CCCGAA | -2.28 |
| TTATAG | 0.642 |
| CTTCTA | 0.561 |
| GCGCTT | -0.217 |
| TAGGAC | -0.035 |
| CATGCA | 1.4 |
| TGAAGA | 0.341 |
| GTGTGT | 0.001 |
| TTCTTT | 0.89 |
| AAGAAT | 0.799 |
| GTTCTC | -0.128 |

| Sequence | 6-mer SELEX enrichment z-score |
| --- | --- |
| TGGTAA | -0.236 |
| GCGCGC | 0.012 |
| CTTGAC | -1.13 |
| TCGTCG | -0.161 |
| AATATG | 1.27 |
| TGCAGC | 0.507 |
| CGACGG | -0.752 |
| GCAATC | -0.034 |
| CAGCAG | 0.503 |
| GACACG | -0.116 |
| CCCTCC | -0.081 |
| TAGGGT | 0.243 |
| GAAAGG | 0.076 |
| TGACAC | 0.355 |
| ACTAAT | 1.27 |
| GCCATT | 0.553 |
| TTGCGT | -0.812 |
| GGGCCA | 0.136 |
| AAGAGA | 0.162 |
| CTAACC | -1.05 |
